Structures are written as SMILES. The whole screen tested about 310,000 compounds, of which about 2,200 (0.71%) showed an effect of 50% or more. Effects have a minus sign here. Some of the results follow. Where a SMILES comes first, the peptide text is derived from it.

Chain of human ether-à-go-go-related gene (hERG) potassium channel (Q12809 whole entry, looked up): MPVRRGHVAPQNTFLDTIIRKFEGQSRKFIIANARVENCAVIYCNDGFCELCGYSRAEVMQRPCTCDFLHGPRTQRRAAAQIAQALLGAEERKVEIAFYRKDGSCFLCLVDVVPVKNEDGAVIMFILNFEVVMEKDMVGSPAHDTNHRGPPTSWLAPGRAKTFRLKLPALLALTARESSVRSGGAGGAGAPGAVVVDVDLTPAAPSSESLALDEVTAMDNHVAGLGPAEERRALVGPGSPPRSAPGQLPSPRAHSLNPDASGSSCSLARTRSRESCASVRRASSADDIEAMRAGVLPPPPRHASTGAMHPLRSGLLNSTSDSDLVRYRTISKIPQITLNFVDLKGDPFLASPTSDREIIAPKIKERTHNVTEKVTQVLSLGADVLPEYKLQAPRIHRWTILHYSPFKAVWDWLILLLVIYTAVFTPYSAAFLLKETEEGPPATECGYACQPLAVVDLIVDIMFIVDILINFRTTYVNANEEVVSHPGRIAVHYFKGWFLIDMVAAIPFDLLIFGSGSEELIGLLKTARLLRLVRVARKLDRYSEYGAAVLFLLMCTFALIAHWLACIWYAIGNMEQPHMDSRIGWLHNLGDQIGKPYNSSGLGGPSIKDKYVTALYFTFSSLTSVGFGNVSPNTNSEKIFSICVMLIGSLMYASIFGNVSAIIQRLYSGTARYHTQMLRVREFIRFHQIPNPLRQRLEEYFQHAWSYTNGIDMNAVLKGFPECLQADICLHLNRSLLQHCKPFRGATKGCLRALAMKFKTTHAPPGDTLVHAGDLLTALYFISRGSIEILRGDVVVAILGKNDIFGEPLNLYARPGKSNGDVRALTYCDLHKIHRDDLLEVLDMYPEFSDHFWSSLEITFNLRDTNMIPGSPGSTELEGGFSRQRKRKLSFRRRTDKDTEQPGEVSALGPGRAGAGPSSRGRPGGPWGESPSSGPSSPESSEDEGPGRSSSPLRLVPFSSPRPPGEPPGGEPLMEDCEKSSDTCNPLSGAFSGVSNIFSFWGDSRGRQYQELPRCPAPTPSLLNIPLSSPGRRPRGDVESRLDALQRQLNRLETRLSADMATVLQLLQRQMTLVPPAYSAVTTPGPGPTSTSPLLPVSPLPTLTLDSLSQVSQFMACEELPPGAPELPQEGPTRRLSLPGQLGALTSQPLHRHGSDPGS

The test concerns the target human ether-à-go-go-related gene (hERG) potassium channel (human, UniProt Q12809). In words: primary screen, population patch clamp on CHO cells stably expressing hERG.
Regarding `CCCC(NCC(=O)Nc1cc(S(=O)(=O)N2CCOCC2)ccc1OC)c1ccccc1` (centres unmarked), the “hERG current change (%, negative = inhibition) at 1uM” value is reported as 3.06%. With `CCN(CC)S(=O)(=O)c1ccc(Cl)c(NC(=O)COc2ccc(OC)cc2[N+](=O)[O-])c1` the figure was 18.8%; with `CC(C)(C)c1sc(N)nc1-c1ccccc1`, 11.9%; with `CCOC(=O)C1(Cc2cccc(F)c2)CCN(C(=O)C2CCOCC2)CC1`, 2.81%. `Cc1cc(NC(=O)CCC(=O)N(CCC(C)C)C(C(=O)NC2CCCC2)c2cccnc2)no1` (centres unmarked): the “hERG current change (%, negative = inhibition) at 1uM” value was 8.72%. In the case of `Cc1oc2c(F)c(F)c(F)c(F)c2c1S(=O)(=O)Nc1cccc(C(F)(F)F)c1`, the “hERG current change (%, negative = inhibition) at 1uM” value is listed as -15.6%. With `NNC(=O)c1ccc(O)cc1` the figure was 10.4%.

For `C=CCn1c(-c2ccccc2[N+](=O)[O-])n[nH]c1=S`, the “hERG current change (%, negative = inhibition) at 1uM” value is recorded as 11%. For `Cc1ccc(C)c(C(=O)COc2ccc(C)nc2[N+](=O)[O-])c1`, the “hERG current change (%, negative = inhibition) at 1uM” value was 4.3%. Turning to `CCC(CC)C(=O)Nc1cc(OC)c(OC)cc1C(=O)O`, the “hERG current change (%, negative = inhibition) at 1uM” value is listed as 7.97%.

As for `O=C(NCc1ccccc1)N1CCn2c(nc3ccccc32)C1`, the “hERG current change (%, negative = inhibition) at 1uM” value is recorded as 10.6%.

For the compound `Cc1ccc(NC(=O)CS(=O)CC(=O)N(C(C)C(=O)NC2CCCCC2)C(C)(C)C)cc1` (centres unmarked), the “hERG current change (%, negative = inhibition) at 1uM” value worked out at 7.68%.

For `O=C1CC(N2CCN(Cc3ccc4c(c3)OCO4)CC2)C(=O)N1c1ccccc1` (centres unmarked), the “hERG current change (%, negative = inhibition) at 1uM” value was -3.04%.

Consider `C=CCOC(=O)C1=C[C@H](c2csc3ccccc23)C[C@H](OCCCCO)O1`, for which the “hERG current change (%, negative = inhibition) at 1uM” value turned out to be 14%.

On to `CCOc1ccc2c(c1)OC(c1ccc(OC)cc1)(C(F)(F)F)NC2=O` (centres unmarked), for which the “hERG current change (%, negative = inhibition) at 1uM” value is -3.91%. As for `CC[N+]1(CC)CC2=Cc3ccccc3CC2C1.[Br-]` (centres unmarked), the “hERG current change (%, negative = inhibition) at 1uM” value is listed as -3.1%. Regarding `CSc1ccccc1NC(=O)Nc1ccccc1`, the “hERG current change (%, negative = inhibition) at 1uM” value worked out at 17.1%. With `CN1C(=O)C(=Cc2ccccc2OCCOc2ccc([N+](=O)[O-])cc2)C(=O)N(C)C1=O` the figure was -3.75%; with `COc1ccc(-n2c(=S)[nH]c3ccccc32)cc1`, 8.87%. With `CC(C(=O)N1CCN(Cc2ccccc2)CC1)n1ncn2cccc2c1=O` (centres unmarked) the figure was 9.05%. In the case of `Cn1cc(Cl)c(C(=O)NC(=S)Nc2sc3c(c2C#N)CCCCC3)n1` it was 14.6%. For `O=C(CSc1nnc(CNC(=O)c2ccccc2)o1)c1ccccc1`, the “hERG current change (%, negative = inhibition) at 1uM” value is 9.49%.

`CN1C(=O)CC(N2CCC(c3nc4ccccc4[nH]3)CC2)C1=O` (centres unmarked): the “hERG current change (%, negative = inhibition) at 1uM” value came to 18.1%. In the case of `COc1ccc(S(=O)(=O)NCC(=O)NC2CC2)cc1OC` it was 12.7%; in that of `CCSc1nnc(NC(=O)Cc2ccc(OC)cc2)s1`, 13.3%; in that of `CCOC(=O)C1CCCN(C(=O)c2ccccc2NC(C)=O)C1` (centres unmarked), 7.69%. In the case of `O=C(CCNC(=O)c1ccco1)Nc1cccc(C(F)(F)F)c1` it was 7.83%; in that of `c1ccc(OCC2CO2)cc1` (centres unmarked), 17.3%. `CNC1(c2nnnn2-c2c(C)cccc2C)CCOC(C)(C)C1` (centres unmarked): the “hERG current change (%, negative = inhibition) at 1uM” value came to 2.22%. Take `CCOc1ccccc1-n1nnnc1SCC(=O)NCc1ccco1`: the “hERG current change (%, negative = inhibition) at 1uM” value turned out to be 12.7%. Regarding `COc1ccc(-n2c(=S)[nH]c3sc(-c4ccccc4)cc3c2=O)c(OC)c1`, the “hERG current change (%, negative = inhibition) at 1uM” value is 7.03%. Turning to `Cc1ccc(N(C)C2=NC(=O)CS2)cc1Cl`, the “hERG current change (%, negative = inhibition) at 1uM” value worked out at 14.2%. With `Cc1ccc(NC(=O)CN2C(=O)S/C(=C\c3ccccn3)C2=O)cc1` the figure was 9.63%; with `O=C(CCc1ccccc1)N=C1SC2CS(=O)(=O)CC2N1Cc1ccccc1` (centres unmarked), 28%. For `COc1ccc(C(=S)N2CCN(S(=O)(=O)c3ccccc3)CC2)cc1`, the “hERG current change (%, negative = inhibition) at 1uM” value was 8.19%.

As for `CC(C)N(C(=S)Nc1cc(S(=O)(=O)N2CCOCC2)ccc1Cl)c1ccccc1`, the “hERG current change (%, negative = inhibition) at 1uM” value is recorded as -12%. Turning to `Cc1cc(C)n2cc(CSCc3ccccc3)nc2n1`, the “hERG current change (%, negative = inhibition) at 1uM” value is recorded as 0.594%. In the case of `COc1ccc(C)cc1NS(=O)(=O)c1ccc2c(c1)n(C)c(=O)n2C` it was 12%. For `CCN(CC)S(=O)(=O)c1cc([N+](=O)[O-])ccc1NNC(=O)Nc1ccc(Cl)c(Cl)c1`, the “hERG current change (%, negative = inhibition) at 1uM” value stood at 10.1%. In the case of `COC(=O)c1ccc(C2c3c(oc4cc(C)c(C)cc4c3=O)C(=O)N2CCCN(C)C)cc1` (centres unmarked) it was 3.4%; in that of `O=C(CCC1CCN(C(=O)Cc2c(F)cccc2F)CC1)NC1CC1`, 16.3%. For the compound `O=c1cc(N2CCCCC2)c(-c2ccccc2)nn1Cc1ccc(Cl)cc1`, the “hERG current change (%, negative = inhibition) at 1uM” value was determined as 1.75%. `CC(NS(=O)(=O)c1ccc(OCC(=O)N2CCCC2)cc1)c1ccccc1` (centres unmarked): the “hERG current change (%, negative = inhibition) at 1uM” value is 15.5%. In the case of `O=C(CCc1ccccc1)Nc1nccs1` it was 15.9%; in that of `CN1CCN(C(=S)Nc2ccc(Cl)cc2)CC1`, 13.1%.

As to `CS(=O)(=O)N1N=C(c2cccs2)CC1c1ccco1` (centres unmarked), the “hERG current change (%, negative = inhibition) at 1uM” value is on record as 5.57%. With `CC(C)n1c(NCc2c[nH]c3ccccc23)nc2ccccc21`, the “hERG current change (%, negative = inhibition) at 1uM” value is -4.85%. In the case of `Cc1ccc(S(=O)(=O)N2CCN(C)CC2)c(C)c1`, the “hERG current change (%, negative = inhibition) at 1uM” value was determined as 16%. With `COc1ccc(N/N=C(/C#N)S(=O)(=O)c2nsc(C)c2C#N)cc1` the figure was 2.48%; with `COc1ccccc1N1CCN(c2cc(=O)n(Cc3ccc(F)cc3)c(=O)[nH]2)CC1`, 12.3%; with `NC(=O)c1ccccc1NC(=O)CC12CC3CC(CC(Br)(C3)C1)C2`, 14.4%. With `CCNc1nc(NCC)nc(N/N=C/c2ccc(O)c(OC)c2)n1` the figure was 11.4%; with `CC(=O)NC(CC(C)C)C(=O)NC(CO)C(=O)NC(CCC(=O)O)C(=O)NC(C)C(=O)NC(CC(C)C)C(N)=O.O=C(O)C(F)(F)F` (centres unmarked) (Ac-LSEAL-NH2; configuration not given here), 10.6%. With `COc1cc(NC(=S)NCCc2ccccc2)c(OC)cc1NC(=O)CC(C)C` the figure was 15.1%. In the case of `CCOC(=O)NNS(=O)(=O)c1cc(Br)ccc1Br`, the “hERG current change (%, negative = inhibition) at 1uM” value is recorded as 10.8%. In the case of `CCCCCCC1CC(CC(=O)Nc2ccc([N+](=O)[O-])cc2)C(=O)O1` (centres unmarked) it was 5.92%; in that of `CCCCCCCN1C2=NCCN2c2ccccc21.Cl`, -60.7%; in that of `Nc1nc2c(nc(N3CCCCC3)n2[C@@H]2O[C@H](CO)[C@@H](O)[C@H]2O)c(=O)[nH]1`, 11.1%. With `COc1cccc(/C=N/NC(=O)C(=O)NCc2cccnc2)c1` the figure was 9.25%. As for `O=C(Nc1cc(S(=O)(=O)Nc2ccc(Cl)cc2)ccc1O)c1ccc(S(=O)(=O)N2CCCCCC2)cc1`, the “hERG current change (%, negative = inhibition) at 1uM” value was 14.5%. With `CN(C(=O)C12CC3CC(CC(C3)C1)C2)C1CCS(=O)(=O)C1` (centres unmarked) the figure was 15.8%. In the case of `COc1ccc(NC(=S)NC2CCCCC2)cn1` it was 15.5%.

Turning to `CC1CCN(S(=O)(=O)c2ccc(NC(=O)CCN3C(=O)c4ccccc4C3=O)cc2)CC1`, the “hERG current change (%, negative = inhibition) at 1uM” value is given as 17.2%. In the case of `Nc1ncc(Br)cc1S(=O)(=O)NC1CCCCC1` it was 9.52%. As for `CCN(c1ccc(OCC(=O)OCC(=O)Nc2ccc(F)c(F)c2F)cc1)S(=O)(=O)c1ccccc1`, the “hERG current change (%, negative = inhibition) at 1uM” value worked out at 3.8%. Turning to `O=C(NCc1ccccc1)C(c1ccco1)N(C(=O)c1csnn1)c1ccccc1F` (centres unmarked), the “hERG current change (%, negative = inhibition) at 1uM” value came to 10.7%. In the case of `O=C(Cn1ccc2cc(S(=O)(=O)N3CCCC3)ccc21)NCc1ccco1` it was 9.42%; in that of `O=S(=O)(N/N=C\c1ccc2c(c1)OCO2)c1ccccc1`, 11.2%. For the compound `Cc1cc(-c2ccccc2)nc2c(Br)c(C(=O)O)nn12`, the “hERG current change (%, negative = inhibition) at 1uM” value was 9.41%. With `CCCn1c(Cc2ccccc2)nnc1SCC(=O)N1CCOCC1`, the “hERG current change (%, negative = inhibition) at 1uM” value was determined as 10.4%.

Turning to `O=C1CC(C(=O)N2CCCc3ccccc32)CN1c1ccc(F)cc1` (centres unmarked), the “hERG current change (%, negative = inhibition) at 1uM” value turned out to be 3.19%.

Consider `CCc1nnc(NC(=O)CSc2nc3cccnc3n2C2CCCCC2)s1`, for which the “hERG current change (%, negative = inhibition) at 1uM” value was -5.35%. In the case of `CCOc1cc(C2/C(=C(\O)c3cc(C)ccc3C)C(=O)C(=O)N2CCN(C)C)ccc1O` (centres unmarked) it was -6.16%; in that of `Cc1ccc(S(=O)(=O)N(C)S(=O)(=O)c2ccc(C)cc2)cc1`, 9.04%; in that of `Cc1cc(C(=O)N/N=C/c2cc(Br)ccc2OC(=O)c2ccccc2Cl)n[nH]1`, 9.7%. In the case of `COc1ccc2c(COC(=O)CC3Sc4ccccc4NC3=O)cc(=O)oc2c1` (centres unmarked) it was -12.8%; in that of `CCn1c(=O)n(CC(=O)NCC2CCCO2)c(=O)c2c3c(sc21)CCCC3` (centres unmarked), 7.09%; in that of `CN(C(=O)Oc1ccc(C(C)(C)C)cc1)c1ccccc1`, 17.7%.

In the case of `Br.COc1ccc(/C(C)=N/Nc2nc(C)c(C(C)=O)s2)cc1`, the “hERG current change (%, negative = inhibition) at 1uM” value was determined as 14.3%. Turning to `COc1ccccc1C(=O)Nc1cccc(NC(=O)c2ccccc2OC)n1`, the “hERG current change (%, negative = inhibition) at 1uM” value turned out to be 17.5%. Turning to `COc1ccc(C2SCCN2S(=O)(=O)c2ccc(F)cc2)cc1OC` (centres unmarked), the “hERG current change (%, negative = inhibition) at 1uM” value came to 2.64%. With `COC(=O)c1cc(C(=O)OC)cc(-n2c(C)cc(C=O)c2C)c1` the figure was 6.13%; with `CCOC(=O)/C=C/C(=O)Nc1ccc(S(=O)(=O)N(C)c2ccccc2)cc1`, 8.29%. With `CC1CC(=S)Nc2ccccc2N1Cc1ccccc1` (centres unmarked), the “hERG current change (%, negative = inhibition) at 1uM” value is given as 8.42%.

In the case of `CCCCn1c(N)c(N(CCC(C)C)C(=O)CCN2C(=O)C3CC=CCC3C2=O)c(=O)[nH]c1=O` (centres unmarked), the “hERG current change (%, negative = inhibition) at 1uM” value is listed as 5.54%. Consider `CCN1CCN(C(c2cccs2)C(C)NC(=O)c2cccc(OC)c2)CC1` (centres unmarked), for which the “hERG current change (%, negative = inhibition) at 1uM” value was 10.7%. In the case of `Cc1cc(C)c(C#N)c(SCc2nnc(-c3ccccc3)o2)n1` it was 12.9%; in that of `CC(C)N(Cc1ccccc1)C(=O)c1cnc2n(c1=O)CCS2`, 4.49%; in that of `CCCc1cc(C(=O)Nc2ccc(C(=O)c3ccccc3)cc2)n(C)n1`, 1.33%.

(Values after article PMC4336329 (PLoS ONE, 2015).)
